Test results reported in the supplement of paper PMC10126150.
Sequences with one replicate were seen in a single cluster, so their values are uncertain.

Test system: ATP
Test: switch fluorescence ratio, 500 uM ATP over buffer (Cy3 cluster intensity, sum of 5 cycles each) (fold (ratio)); higher = stronger signal-on switching upon ATP binding; sequences stand for … in TCGTCGGCAGCGTCAGATGTGTATAAGAGACAGTTTTTTTTTTTTTTTTTTTTTTTTT…TC
Details: aptamer strand: ATP DNA aptamer (quencher-CACCTGGGGGAGTATTGCGGAGGAAGG + anchor), 100 nM annealed; ATP concentration: 500 uM; one replicate
Outline: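 Cy3-labelled switching-strand clusters on a modified Illumina MiSeq flow-cell were annealed to 100 nM quencher-labelled ATP aptamer, imaged in selection buffer, then imaged after 15 min with 500 uM ATP at 22 °C. Five buffer/ATP cycles ran, with NaOH stripping and re-annealing between them. The fluorescence ratio is summed target-cycle over summed buffer-cycle Cy3 intensity per cluster, averaged per switch-domain sequence. Clusters outside 100-1000 RFU were excluded.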
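Note: ATP exposure 15 min at 22 °C before imaging.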

## TAACAGGCAG
  switch fluorescence ratio: 0.993

## TAGGGGGTC
  switch fluorescence ratio: 0.986

## CACTGTTTAC
  switch fluorescence ratio: 1.13

## GCAACAACGA
  switch fluorescence ratio: 1.17

## GCGTTCAAG
  switch fluorescence ratio: 0.972

## AGATTCTAGA
  switch fluorescence ratio: 1.08

## TGGTACGACC
  switch fluorescence ratio: 1.14

## GTCGTAGAGG
  switch fluorescence ratio: 0.964

## CACCTACCCT
  switch fluorescence ratio: 1.32

## TCTCTAAATT
  switch fluorescence ratio: 1.03

## GTGGTACCAG
  switch fluorescence ratio: 1.01

## TTATGTACCG
  switch fluorescence ratio: 1.01

## TTCCATATAG
  switch fluorescence ratio: 1.03

## TACTATCGAT
  switch fluorescence ratio: 0.995

## CTCTAGCCTT
  switch fluorescence ratio: 1.03

## AGGCGTATTA
  switch fluorescence ratio: 1.02

## CTATGCGGGT
  switch fluorescence ratio: 1.02

## AGGTCACGGG
  switch fluorescence ratio: 0.97

## ACTGAGTTGC
  switch fluorescence ratio: 1.06

## TGGTAACGGA
  switch fluorescence ratio: 0.961

## CACCTGAGGG
  switch fluorescence ratio: 0.963

## TTATCTTTTC
  switch fluorescence ratio: 1.02

## GTAATTTGAC
  switch fluorescence ratio: 0.978

## TTTTTTGCAC
  switch fluorescence ratio: 0.998

## ACTTCATGTT
  switch fluorescence ratio: 0.997

## TAGTAACGCT
  switch fluorescence ratio: 1.02

## GGCATCTCTT
  switch fluorescence ratio: 1.05

## TATTACTTAT
  switch fluorescence ratio: 1.03

## TTATGGATTC
  switch fluorescence ratio: 0.991

## GCAGATGGCT
  switch fluorescence ratio: 1.05

## GAGGTTGCGC
  switch fluorescence ratio: 1

## GGGTCTTGC
  switch fluorescence ratio: 1.01

## TTGACTCCTA
  switch fluorescence ratio: 1.1

## AAGATCGTCC
  switch fluorescence ratio: 1.07

## TTGCTAAGGT
  switch fluorescence ratio: 0.983

## CGCAGGTTCC
  switch fluorescence ratio: 1.44

## AGAGTGAATG
  switch fluorescence ratio: 0.989

## TGACTCTAGA
  switch fluorescence ratio: 1.08

## TGAATAAGTG
  switch fluorescence ratio: 1

## GCGAACTATA
  switch fluorescence ratio: 1.03

## ATAAATCAGG
  switch fluorescence ratio: 1.01

## ACAAGGCGCT
  switch fluorescence ratio: 1.03

## AATCTAAAAA
  switch fluorescence ratio: 1.01

## CTATACGCGA
  switch fluorescence ratio: 1.55

## TGAGGGACGG
  switch fluorescence ratio: 0.973

## GGCTTTTCCC
  switch fluorescence ratio: 1.02

## GATTACCGGG
  switch fluorescence ratio: 1.04

## AGACGTAGGC
  switch fluorescence ratio: 1.02

## CAGAGATGGT
  switch fluorescence ratio: 1

## ACCTCTGATC
  switch fluorescence ratio: 1.11

## GCGGGGCCGT
  switch fluorescence ratio: 1.06

## GACAACTCAG
  switch fluorescence ratio: 1.02

## GGGGGATCAC
  switch fluorescence ratio: 1.03

## ACACTGCGCG
  switch fluorescence ratio: 1.06

## CATGGCGTAA
  switch fluorescence ratio: 0.992

## CGGCGTATGG
  switch fluorescence ratio: 1.02

## TTACAATGTA
  switch fluorescence ratio: 1.02

## GTGCCA
  switch fluorescence ratio: 1.01

## TTTACCCCTA
  switch fluorescence ratio: 1.1

## TTGACCTCGA
  switch fluorescence ratio: 1.01

## GCGGGGCCAA
  switch fluorescence ratio: 0.997

## ATTGACAGAT
  switch fluorescence ratio: 1.01

## GCTGCTTGTT
  switch fluorescence ratio: 1.04

## CGAATAATTC
  switch fluorescence ratio: 1.03

## GCTAAGTCTT
  switch fluorescence ratio: 1.01

## TATTCAAT
  switch fluorescence ratio: 1.02

## AGGGTTGCT
  switch fluorescence ratio: 0.983

## CTTGGGTGT
  switch fluorescence ratio: 1.05

## TCTAGTTCG
  switch fluorescence ratio: 0.961

## GTACGGCTGC
  switch fluorescence ratio: 1.09

## CGCTAAAGT
  switch fluorescence ratio: 1.4

## ATCATCCTTA
  switch fluorescence ratio: 0.977

## TGACGACGTG
  switch fluorescence ratio: 1.05

## GTCTAGGGAT
  switch fluorescence ratio: 0.983

## TCCAATTCGA
  switch fluorescence ratio: 1.02

## TCCGGTGGTC
  switch fluorescence ratio: 0.995

## AGTTGGCCGT
  switch fluorescence ratio: 0.984

## CCAATCCTGA
  switch fluorescence ratio: 1.07

## AATTCTTTAA
  switch fluorescence ratio: 0.924

## ATCGGTCGTG
  switch fluorescence ratio: 0.962

## CGGATAAGAA
  switch fluorescence ratio: 0.97

## GCTTTCACAG
  switch fluorescence ratio: 1.01

## ATTGTAGTTA
  switch fluorescence ratio: 1.02

## ATACTAGT
  switch fluorescence ratio: 1.01

## ATTTGTCACG
  switch fluorescence ratio: 1

## TCCAATTTAA
  switch fluorescence ratio: 1.01

## AACCCCACGC
  switch fluorescence ratio: 1.5

## ATATTTCGCG
  switch fluorescence ratio: 1.01

## AGTTAGCTGG
  switch fluorescence ratio: 1.02

## CCAGACTTTG
  switch fluorescence ratio: 0.942

## CTTAATCATG
  switch fluorescence ratio: 0.986

## TCTATGATG
  switch fluorescence ratio: 1

## TCGTTACTGC
  switch fluorescence ratio: 1.03

## CCTCAAGGTA
  switch fluorescence ratio: 1.99

## AAGTATTGCA
  switch fluorescence ratio: 0.999

## GAATCTGTTT
  switch fluorescence ratio: 0.98

## GTGGCCTATC
  switch fluorescence ratio: 0.962

## TTCATTGGGC
  switch fluorescence ratio: 0.966

## TAGTGGCGCG
  switch fluorescence ratio: 1.06

## CGCACAGCTC
  switch fluorescence ratio: 1.98

## TCAGAGCTTC
  switch fluorescence ratio: 1.02

## ACCGGGAAAT
  switch fluorescence ratio: 1.03

## CCCATAGAGC
  switch fluorescence ratio: 1.06

## TAGTTGTCTA
  switch fluorescence ratio: 0.954

## TTGCGGTCTC
  switch fluorescence ratio: 1.05

## CGTAAGTTCG
  switch fluorescence ratio: 1

## ATATCCTTTT
  switch fluorescence ratio: 1.03

## GCAAAGAAGG
  switch fluorescence ratio: 0.998

## TGAGGGGAGC
  switch fluorescence ratio: 0.965

## CGAACCTGTG
  switch fluorescence ratio: 1.05

## CCGGCGGCAC
  switch fluorescence ratio: 4.47

## GTTGATATGG
  switch fluorescence ratio: 1

## TAACTATGAC
  switch fluorescence ratio: 1.13

## ATCAGCGCAT
  switch fluorescence ratio: 1.11

## GTTGCTTAAC
  switch fluorescence ratio: 1.03

## GAACAAAGGC
  switch fluorescence ratio: 1.02

## TCGGAGCGGT
  switch fluorescence ratio: 3.21

## TGATACTACC
  switch fluorescence ratio: 1.32

## AAGGATTTGT
  switch fluorescence ratio: 0.966

## ATAATGATAC
  switch fluorescence ratio: 1.06

## TCGCTCGCGT
  switch fluorescence ratio: 1.06

## CTTAAGCTTT
  switch fluorescence ratio: 1.04

## CGACCTAATT
  switch fluorescence ratio: 1.08

## ACGAGTTAGA
  switch fluorescence ratio: 1.01

## CGTTGCGGC
  switch fluorescence ratio: 1.1

## GGGACAGATT
  switch fluorescence ratio: 1.01

## TACGAACGTA
  switch fluorescence ratio: 1.1

## AGGAAGGGCT
  switch fluorescence ratio: 0.93

## CTATTTTAA
  switch fluorescence ratio: 0.981

## TAATCTAGCT
  switch fluorescence ratio: 1.02

## AACGGCATT
  switch fluorescence ratio: 1.02

## GTTAGACACT
  switch fluorescence ratio: 0.992

## CGAGTAAGAG
  switch fluorescence ratio: 1.1

## GATGCTAG
  switch fluorescence ratio: 1.01

## GACGAGACAT
  switch fluorescence ratio: 1.17

## AAACCGAGGT
  switch fluorescence ratio: 0.968

## GGTGAACCTA
  switch fluorescence ratio: 1.04

## TCCGTCCGTT
  switch fluorescence ratio: 1.32

## TTTCTTTTGT
  switch fluorescence ratio: 0.946

## TTTCTCCTAT
  switch fluorescence ratio: 1.03

## ACCTCGGCTG
  switch fluorescence ratio: 1.13

## AAGCAATCGT
  switch fluorescence ratio: 0.967

## TAGGAGGGTA
  switch fluorescence ratio: 1.02

## GGTGTGATAA
  switch fluorescence ratio: 0.992

## TGTCTACCGG
  switch fluorescence ratio: 1.05

## AGCTTGAAGT
  switch fluorescence ratio: 1.03

## AGAGTTGTCC
  switch fluorescence ratio: 1.03

## GTATCAGGAG
  switch fluorescence ratio: 0.964

## CGCTGTTTTA
  switch fluorescence ratio: 1.06

## AAATAGCGGG
  switch fluorescence ratio: 1.01

## GGCTGGGAAC
  switch fluorescence ratio: 0.984

## GAGGTCGCGA
  switch fluorescence ratio: 0.949

## GTCCTCTTCT
  switch fluorescence ratio: 1.02

## CAAACAAGGA
  switch fluorescence ratio: 0.972

## AGCACATATG
  switch fluorescence ratio: 0.99

## CCTACTTACT
  switch fluorescence ratio: 1.35

## TGTGGGGAT
  switch fluorescence ratio: 0.995

## CGAGTGAACT
  switch fluorescence ratio: 0.964

## GCCAGCGTCG
  switch fluorescence ratio: 0.964

## GGCGTTTCAG
  switch fluorescence ratio: 1.01

## AAAATGGTCT
  switch fluorescence ratio: 1.01

## TTGTTTACGT
  switch fluorescence ratio: 0.976

## CTTTAAGAGC
  switch fluorescence ratio: 1.13

## GTACTTATGT
  switch fluorescence ratio: 1.03

## CTCGGAGGAT
  switch fluorescence ratio: 1

## CAGTGTTTTC
  switch fluorescence ratio: 0.975

## AGGGCGTG
  switch fluorescence ratio: 0.989

## GCAGTGCCCG
  switch fluorescence ratio: 0.989

## ACTGATCCAC
  switch fluorescence ratio: 1.13

## ACAATCCTGA
  switch fluorescence ratio: 1.07

## TGGTAGGTTA
  switch fluorescence ratio: 1.02

## CTTCTTGCCA
  switch fluorescence ratio: 1.02

## TTCTTATC
  switch fluorescence ratio: 1.02

## ATAGGAGTTT
  switch fluorescence ratio: 0.975

## AAAGATCCTC
  switch fluorescence ratio: 0.996

## ATCTTAACA
  switch fluorescence ratio: 0.954

## GGAACCAACA
  switch fluorescence ratio: 1.04

## CAATCGGAGG
  switch fluorescence ratio: 1

## ATTCAGGCGA
  switch fluorescence ratio: 0.96

## GCCACCAAAG
  switch fluorescence ratio: 0.986

## GGTCCCGTCT
  switch fluorescence ratio: 1.04

## GCTTCTAAGA
  switch fluorescence ratio: 1.02

## GAGGGACTCG
  switch fluorescence ratio: 0.993

## CTCGCGAGTT
  switch fluorescence ratio: 1.04

## TCACCAATCT
  switch fluorescence ratio: 1.04

## TAGGTCTCTC
  switch fluorescence ratio: 0.987

## GATGAATCC
  switch fluorescence ratio: 1.01

## GCGGTGATTT
  switch fluorescence ratio: 0.958

## TAACTAGGCC
  switch fluorescence ratio: 1.02

## TAAGTAACTT
  switch fluorescence ratio: 1.01

## AAACCTTTG
  switch fluorescence ratio: 1.38

## TTTCGATATA
  switch fluorescence ratio: 1.04

## TCAGAGTGTT
  switch fluorescence ratio: 1

## AAAGTAGAGA
  switch fluorescence ratio: 0.999

## GGATCTGGGC
  switch fluorescence ratio: 1.01

## TACTAATTCT
  switch fluorescence ratio: 1.04

## CCCGAAACTT
  switch fluorescence ratio: 1.11

## GCAATTCAAA
  switch fluorescence ratio: 1.04

## ATTGAAATTA
  switch fluorescence ratio: 1.04

## GAAATACGAT
  switch fluorescence ratio: 1.13

## TATTACCGGT
  switch fluorescence ratio: 1
